# Data taken from publication PMC4336329 (PLoS ONE, 2015).
# Out of some 310,000 compounds screened, about 14,000 (4.5%) showed an effect of 50% or more. The effect is printed as a negative number. The list shows a part of the results.
# Biological target: human ether-à-go-go-related gene (hERG) potassium channel (human, UniProt Q12809)
# Assay: primary screen, population patch clamp on CHO cells stably expressing hERG
# 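Note: peak tail current of the secondary pulse compared with the same well before compound.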
# human ether-à-go-go-related gene (hERG) potassium channel, sequence (Q12809 whole entry, looked up): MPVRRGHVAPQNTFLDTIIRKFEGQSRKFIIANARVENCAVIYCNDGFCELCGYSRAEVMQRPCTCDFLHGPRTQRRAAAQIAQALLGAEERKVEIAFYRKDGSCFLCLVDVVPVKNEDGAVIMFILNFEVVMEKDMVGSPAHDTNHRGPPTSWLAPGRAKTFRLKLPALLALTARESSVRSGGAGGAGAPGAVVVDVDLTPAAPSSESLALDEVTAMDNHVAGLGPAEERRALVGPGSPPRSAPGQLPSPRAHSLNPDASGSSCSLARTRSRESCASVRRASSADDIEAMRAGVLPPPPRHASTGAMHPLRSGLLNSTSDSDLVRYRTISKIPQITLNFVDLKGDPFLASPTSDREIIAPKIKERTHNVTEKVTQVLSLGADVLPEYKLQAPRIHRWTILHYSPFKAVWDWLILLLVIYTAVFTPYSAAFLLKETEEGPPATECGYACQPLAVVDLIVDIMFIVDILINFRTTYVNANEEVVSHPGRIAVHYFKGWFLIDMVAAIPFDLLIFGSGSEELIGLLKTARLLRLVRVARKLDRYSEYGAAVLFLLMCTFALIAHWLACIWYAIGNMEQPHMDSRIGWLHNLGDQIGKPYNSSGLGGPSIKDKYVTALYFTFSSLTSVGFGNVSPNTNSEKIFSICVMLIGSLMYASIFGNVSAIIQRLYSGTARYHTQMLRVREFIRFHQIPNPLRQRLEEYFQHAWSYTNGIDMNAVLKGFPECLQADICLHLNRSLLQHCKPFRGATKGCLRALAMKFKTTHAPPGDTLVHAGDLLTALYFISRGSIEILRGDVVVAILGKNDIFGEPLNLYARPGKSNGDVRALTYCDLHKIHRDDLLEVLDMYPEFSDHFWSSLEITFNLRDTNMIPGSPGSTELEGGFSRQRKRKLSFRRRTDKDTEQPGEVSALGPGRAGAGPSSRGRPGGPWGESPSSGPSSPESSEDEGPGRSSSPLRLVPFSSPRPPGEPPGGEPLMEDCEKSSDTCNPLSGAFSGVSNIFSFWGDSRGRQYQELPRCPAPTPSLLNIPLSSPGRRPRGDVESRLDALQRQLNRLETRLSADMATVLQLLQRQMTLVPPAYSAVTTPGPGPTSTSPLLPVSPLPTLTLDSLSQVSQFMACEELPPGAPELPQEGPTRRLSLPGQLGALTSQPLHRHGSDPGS
row,SMILES,"hERG current change (%, negative = inhibition) at 10uM [%]"
1,CCOC(=O)C1=C(C)NC(=O)NC1C(C)C (stereo not shown),-10.3
2,O=c1c2ccccc2nc(-c2ccccc2)n1-c1ccccc1,-13.1
3,COc1ccc(C)cc1NC(=O)CSc1nnc(-c2ccco2)n1Cc1ccco1,-12.8
4,CC(=O)c1ccc(N=c2scc(C)n2C(C)C)cc1,-4.69
5,O=[N+]([O-])c1ccc(Nc2ccccc2F)nc1,-2.22
6,CN(C(=O)CN1C(=O)S/C(=C\c2ccc(F)cc2)C1=O)C1CCS(=O)(=O)C1 (stereo not shown),-34.6
7,Cc1ccc(S(=O)(=O)N2CCN(S(=O)(=O)c3ccccc3)C2c2ccc(N(C)C)cc2)cc1 (stereo not shown),11.5
8,COC(=O)CSc1nnc(-c2ccoc2C)n1-c1ccc(C)cc1,-37
9,Cc1ccc(-c2nnc(CSc3nc4cc5c(cc4cc3C)OCO5)o2)cc1,-1.74
10,CCC(C(=O)NC(C)(C)C)N(Cc1ccc(F)cc1)C(=O)c1snc(C(N)=O)c1N (stereo not shown),13.4
11,CCOC(=O)C1=NN(c2ccccc2)C(=O)C1,7.56
12,CCC(C)[C@@H](N)C(=O)N/N=C/c1cccc2nccnc12.Cl (stereo partly shown),1.69
13,COc1ccc2c(CC(=O)OCC(=O)c3ccccc3OC)coc2c1,-5.39
14,Cc1cc(C)cc(N(C(=O)C(F)(F)F)C(C(=O)NC2CCCCC2)c2cccs2)c1 (stereo not shown),-7.03
15,Cl.O=C(CN1CCOCC1)c1ccc(Br)cc1,18
16,Cc1ccc(-c2nn(C)c(=O)c3ccccc23)cc1CNC(=O)NC1CCCCC1,-8.53
17,CC1(C)CC(=O)N(CC(=O)NCc2ccc(F)cc2)c2ccccc2S1(=O)=O,-5.26
18,Cc1nnc(NCCO)c2ccccc12,15.3
19,COc1ccc(C2=NOC(Cn3c(Cc4ccc(Cl)cc4)nc4c3c(=O)n(C)c(=O)n4C)C2)cc1 (stereo not shown),-22.1
20,COc1ccc2nc(SC(C)C(=O)NC3(C#N)CCCCC3)[nH]c2c1 (stereo not shown),-20.1
21,COc1ccc(C(=O)NC(=S)Nc2ccc(N3CCCC3)cc2)cc1OC,12.1
22,CCOc1ccc(C(=O)Nc2ccc(CN3CCOCC3)cc2)cc1Br,-46.6
23,O=C(O)c1ccc(/C=N/NC(=S)NC2CCCCC2)cc1,16.8
24,CCCn1c(C)cc(C(=O)COC(=O)c2nccnc2N)c1C,6.39
25,CN(CCCC1CCCC1)C(=O)CC1C(=O)NCCN1Cc1cccc(F)c1F (stereo not shown),7.01
